Source: the supplement of paper PMC11876631
Substitutions are numbered along the chain they refer to. Names and notes keep the numbering of the source. ± gives the standard deviation of the averaged measurements. Laboratory Escherichia coli strains with one amino-acid change in an essential protein, pooled on minimal glucose agar with carbenicillin or gentamicin at twice the control MIC (plus kanamycin and chloramphenicol for the plasmids), 48 h. Fold change of barcode share against drug-free plates; higher = less susceptible. Active = above 20 in both replicates (the paper's putatively resistant). '<' = one read or none on drug, '>' = one read or none on a drug-free plate. Shares are relative, so most strains fall below 1 when a few take over. Listed are strains with at least 15 reads on both drug-free plates, and hits; most hits rest on fewer reference reads. Replicate rank correlation about 0.5. Edits are read from barcodes.

B1: hisF V79Q (protein)
chain: MLAKRIIPCLDVRDGQVVKGVQFRNHEIIGDIVPLAKRYAEEGADELVFYDITASSDGRVVDKSWVSRVAEVIDIPFCQAGGIKSLEDAAKILSFGADKISINSPALADPTLITRLADRFGVQCIVVGIDTWYDAETGKYHVNQYTGDESRTRVTQWETLDWVQEVQKRGAGEIVLNMMNQDGVRNGYDLEQLKKVREVCHVPLIASGGAGTMEHFLEAFRDADVDGALAASVFHKQIINIGELKAYLATQGVEIRIC
B2: hisF V79P (protein)
chain: B1 chain with Q79P
B3: hisF V126P (protein)
chain: B1 chain with Q79V, V126P
B4: hisF V126A (protein)
chain: B1 chain with Q79V, V126A
B5: hisF V69A (protein)
chain: B1 chain with V69A, Q79V
B6: hisF V69P (protein)
chain: B1 chain with V69P, Q79V
B7: hisG I167A (protein)
chain: MTDNTRLRIAMQKSGRLSDDSRELLARCGIKINLHTQRLIAMAENMPIDILRVRDDDIPGLVMDGVVDLGIIGENVLEEELLNRRAQGEDPRYFTLRRLDFGGCRLSLATPVDEAWDGPLSLNGKRIATSYPHLLKRYLDQKGISFKSCLLNGSVEVAPRAGLADAACDLVSTGATLEANGLREVEVIYRSKACLIQRDGEMEESKQQLIDKLLTRIQGVIQARESKYIMMHAPTERLDEVIALLPGAERPTILPLAGDQQRVAMHMVSSETLFWETMEKLKALGASSILVLPIEKMME
B8: hisG M265W (protein)
chain: B7 chain with A167I, M265W
B9: hisG I167W (protein)
chain: B7 chain with A167W
B10: hisG M265A (protein)
chain: B7 chain with A167I, M265A
B11: hisG M11A (protein)
chain: B7 chain with M11A, A167I
B12: hisG I217Q (protein)
chain: B7 chain with A167I, I217Q
B13: hisG I9W (protein)
chain: B7 chain with I9W, A167I
B14: hisG I217A (protein)
chain: B7 chain with A167I, I217A
B15: hisG M11W (protein)
chain: B7 chain with M11W, A167I
B16: hisG M265P (protein)
chain: B7 chain with A167I, M265P

molecular target: Escherichia coli (laboratory strain); assay: barcode share on antibiotic plates over drug-free plates; higher = less susceptible; conditions: antibiotic: carbenicillin; 2× MIC (3.1 µg/mL)
Protocol: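 A pool of E. coli strains, each edited to carry one amino-acid change in an essential protein, was grown for 48 h on minimal glucose agar with or without antibiotic; strain barcodes were sequenced; mean of two replicates.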

Protein | fold change of barcode share
B1 | 27.9 [active]
B2 | 73.4 [active]
B3 | 153 [active]
B4 | 0.86 ± 0.18
B5 | 0.512 ± 0.16
B6 | 33.4 [active]
B7 | 0.688 ± 0.025
B8 | 0.793 ± 0.52
B9 | 2.79 ± 0.35
B10 | 0.957 ± 0.12
B11 | 0.989 ± 0.11
B12 | 0.59 ± 0.012
B13 | 0.393 ± 0.084
B14 | 0.7 ± 0.41
B15 | 1.19 ± 0.6
B16 | 0.673 ± 0.077

same assay, conditions: antibiotic: gentamicin; 2× MIC (MIC 0.45 µg/mL)

Protein | fold change of barcode share
B4 | < 0.016
B5 | 0.00797 ± 0.0069
B7 | 0.0191 ± 0.0041
B8 | < 0.014
B9 | 0.0577 ± 0.00065
B10 | < 0.0168
B11 | < 0.0157
B12 | < 0.00997
B14 | 0.0138 ± 0.011
B15 | < 0.0117
B16 | < 0.0219
